# Measurements: PMC4336329 (PLoS ONE, 2015)
# Hit rate of the full screen: of about 310,000 compounds, about 14,000 (4.5%) showed an effect of 50% or more. The effect is printed as a negative number. The list shows a part of the results.
# Target: human ether-à-go-go-related gene (hERG) potassium channel (human, UniProt Q12809)
# Assay: primary screen, population patch clamp on CHO cells stably expressing hERG
# 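Also: peak tail current of the secondary pulse compared with the same well before compound.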
# human ether-à-go-go-related gene (hERG) potassium channel, sequence (Q12809 whole entry, looked up): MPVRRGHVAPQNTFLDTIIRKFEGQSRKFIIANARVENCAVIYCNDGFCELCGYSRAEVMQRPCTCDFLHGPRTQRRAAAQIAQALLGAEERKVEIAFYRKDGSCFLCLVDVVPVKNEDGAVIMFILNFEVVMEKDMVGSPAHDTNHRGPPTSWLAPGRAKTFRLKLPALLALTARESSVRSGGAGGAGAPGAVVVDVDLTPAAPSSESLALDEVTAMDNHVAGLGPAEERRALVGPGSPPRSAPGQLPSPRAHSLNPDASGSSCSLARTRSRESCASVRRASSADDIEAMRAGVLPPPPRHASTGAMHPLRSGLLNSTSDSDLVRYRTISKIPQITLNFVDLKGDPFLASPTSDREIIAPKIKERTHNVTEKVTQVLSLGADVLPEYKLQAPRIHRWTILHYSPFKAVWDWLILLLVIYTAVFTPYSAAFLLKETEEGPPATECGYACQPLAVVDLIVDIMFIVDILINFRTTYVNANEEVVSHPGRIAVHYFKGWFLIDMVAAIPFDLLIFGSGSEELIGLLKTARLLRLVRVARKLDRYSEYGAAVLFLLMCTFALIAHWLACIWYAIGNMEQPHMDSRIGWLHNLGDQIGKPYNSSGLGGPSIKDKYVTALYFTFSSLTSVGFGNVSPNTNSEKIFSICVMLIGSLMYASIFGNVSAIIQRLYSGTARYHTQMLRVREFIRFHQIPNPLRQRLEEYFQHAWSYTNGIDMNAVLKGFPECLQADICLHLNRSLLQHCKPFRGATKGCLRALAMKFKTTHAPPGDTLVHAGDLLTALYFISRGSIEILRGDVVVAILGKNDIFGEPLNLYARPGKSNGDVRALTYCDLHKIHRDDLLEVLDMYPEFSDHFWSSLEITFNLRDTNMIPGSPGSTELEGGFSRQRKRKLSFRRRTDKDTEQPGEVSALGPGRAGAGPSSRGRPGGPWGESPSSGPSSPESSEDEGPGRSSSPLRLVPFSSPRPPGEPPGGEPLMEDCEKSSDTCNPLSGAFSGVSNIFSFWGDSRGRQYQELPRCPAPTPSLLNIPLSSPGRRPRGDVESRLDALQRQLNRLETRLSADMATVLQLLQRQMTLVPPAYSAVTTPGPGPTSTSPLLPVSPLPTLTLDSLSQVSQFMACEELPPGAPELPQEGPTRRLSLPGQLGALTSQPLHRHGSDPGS
row,SMILES,"hERG current change (%, negative = inhibition) at 10uM"
1,COc1ccc(C2=NOC(C(=O)Nc3ccc4c(c3)OCO4)C2)cc1 (stereo not drawn),10.3%
2,Cc1c(NC(=O)c2cccs2)c(=O)n(-c2ccccc2)n1C,3.8%
3,Cc1cc(Br)ccc1NC(=O)CNC(=O)CSc1n[nH]c(N)n1,18.5%
4,COc1ccc(Cc2nc(-c3ccccc3)no2)cc1,5.4%
5,CN(C)Cc1c(C(=O)N/N=C/c2ccncc2)nnn1-c1nonc1N,3.67%
6,COC(=O)C1=C(O)/C(=C\c2cc(C)n(-c3ccccc3F)c2C)N=C1C,14.9%
7,Cc1ccc(OCC(=O)N(Cc2ccccc2)c2c(N)n(Cc3ccccc3)c(=O)[nH]c2=O)c(C)c1,5.3%
8,CCOC(=O)Cn1cnc2c(nnn2-c2ccc(F)cc2)c1=O,0.606%
9,COc1ccc(CNC(=O)CN(C)Cc2ccc(SC)cc2)cc1,-65.2%
10,CCCNC(=S)Nc1ccccc1,20.3%
11,O=C(O)Cc1sc(NCc2ccco2)nc1-c1ccccc1,-8.64%
12,Cc1cc(NC(=O)c2ccco2)c(=O)n(Cc2c(F)cccc2Cl)c1,3.91%
13,COc1ccc(-n2c(C)nc3sc4c(c3c2=O)CCCC4)cc1,-20.3%
14,CCOc1ccc(NC(=O)COC(=O)CNC(=O)c2ccc(-c3ccccc3)cc2)cc1,2.3%
15,CC(C)NC(=O)COC(=O)c1ccc(NS(=O)(=O)c2ccc3c(c2)OCCO3)cc1,-3.56%
16,CCn1c2ccccc2c2nnc(SCCCn3c(=O)[nH]c4ccccc43)nc21,-5.22%
17,CCOC(=O)c1oc2ccccc2c1NC(=O)CN1CCN(C)CC1,-58.4%
18,CSc1nnc2n(Cc3ccccc3)c(=O)c3c4c(sc3n12)COC(C(C)C)C4 (stereo not drawn),2.83%
19,COc1cc(-c2cn(S(=O)(=O)c3cccc4nsnc34)nc2N)cc(OC)c1OC,-15.5%
20,C(=N\NC1=Nc2cccc3cccc1c23)/c1ccccc1,9.92%
21,O=C(Nc1ccccc1)N(Cc1ccc(Cl)cc1)CC(O)C(F)(F)F (stereo not drawn),8.33%
22,O=[N+]([O-])c1ccc(Nc2nc(NC3CCCCC3)nc(N3CCCC3)n2)cc1,13.5%
23,CCNC(=O)/C=C1\NC(C)(C)Cc2c1ccc1ccccc21,-16.5%
24,CC1CCN(S(=O)(=O)c2ccc(C(=O)Nc3nnc(-c4ccncc4)o3)cc2)CC1,-8.76%
